Data as given in PubChem BioAssay AID1159614 (National Center for Advancing Translational Sciences (NCATS), 2016).
Out of some 45,000 compounds screened, about 65 (0.1%) were called active. Calls follow the shape of the dose curve; as a rule, active = well fitted activation curve with a large enough effect; inconclusive = small, poorly fitted or top-dose-only effect; inactive = no such curve, though single readings can be large or run the other way. Some of the results follow.

biological target: Galactocerebrosidase (Homo sapiens) (UniProt P54803); experiment: A Novel Cell-Based Assay to Identify Small Molecules for B -Galactocerebrosidase; conditions: 145M-Twi-hGALC-G270D cells (Twitcher mouse brain line with human GALC G270D), HMU-beta-Gal fluorescence, 48 h; series mostly up to 57.5 µM; activation: at the top concentration; also: 0% is about no effect; nearly all actives have a fitted effect of over 65% in size
Chain of UniProt P54803 (P54803 whole entry, looked up): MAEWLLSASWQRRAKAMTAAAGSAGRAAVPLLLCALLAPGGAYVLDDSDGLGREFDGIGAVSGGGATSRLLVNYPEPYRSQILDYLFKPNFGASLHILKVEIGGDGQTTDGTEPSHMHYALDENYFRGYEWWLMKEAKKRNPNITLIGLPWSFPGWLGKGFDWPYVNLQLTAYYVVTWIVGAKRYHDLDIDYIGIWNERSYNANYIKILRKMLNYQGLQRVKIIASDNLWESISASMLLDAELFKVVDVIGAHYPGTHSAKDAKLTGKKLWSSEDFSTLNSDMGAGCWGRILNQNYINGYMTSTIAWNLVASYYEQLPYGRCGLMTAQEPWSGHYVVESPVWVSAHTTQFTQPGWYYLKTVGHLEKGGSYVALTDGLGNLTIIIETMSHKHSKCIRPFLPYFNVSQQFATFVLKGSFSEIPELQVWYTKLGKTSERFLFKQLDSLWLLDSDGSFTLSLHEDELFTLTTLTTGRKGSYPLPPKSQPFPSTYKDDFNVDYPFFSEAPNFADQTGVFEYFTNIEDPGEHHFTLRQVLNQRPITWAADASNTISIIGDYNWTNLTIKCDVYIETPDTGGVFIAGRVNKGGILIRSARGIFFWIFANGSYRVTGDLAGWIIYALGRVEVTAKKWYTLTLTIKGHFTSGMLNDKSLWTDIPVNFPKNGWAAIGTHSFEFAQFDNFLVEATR
Summary of the method: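 Live 145M-Twi cells (Twitcher mouse brain-derived, GALC-null) stably expressing human GALC-G270D, with a wild-type GALC line, were compound-treated. Residual GALC activity was then read as fluorescence from 0.1 mM final HMU-β-gal at pH 5.2; higher signal means activation.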

activation, inactive:
CCc1ccc(NC(=O)N(Cc2cn(CC)c3ccccc23)C2CCCCC2)cc1 1.71%, COc1cccc(NC(=O)C2CCN(c3cc(C)nc4c(-c5ccc(Cl)cc5)c(C)nn34)CC2)c1 8.51%, O=C(COc1ccc(F)cc1)NC1CC(=O)N(c2ccc3c(c2)OCCO3)C1 (centres undefined) -7.93%, COc1ccc(CNC(=O)c2ccc3c(c2)CCN3S(=O)(=O)c2ccc(Cl)cc2)cc1 -14.3%, Cc1ccc(-c2nn3c(=O)cc(CN4CCN(S(=O)(=O)c5ccc(Cl)cc5)CC4)nc3s2)cc1 -7.24%, COc1ccc(Cc2nc3ccc(C(=O)NCCc4ccccc4)cc3o2)cc1 -0.8%, CCc1ccccc1-n1c2c(cc(-c3nc(-c4ccc(Cl)cc4)cs3)c1=O)C(=O)CC(C)(C)C2 -14.5%, CC(=O)N1c2ccc(S(=O)(=O)NCC3CCC(C(=O)Nc4ccc(F)cc4)CC3)cc2CC1C (centres undefined) -13.1%, CCOC(=O)c1c(C)[nH]c(C)c1S(=O)(=O)N1CCN(c2ccc(Cl)cc2)CC1 -13.2%, CCOc1ccc(OCC)c(NS(=O)(=O)c2ccc3[nH]c(=O)ccc3c2)c1 -9.09%, COC[C@@H](c1ccc(C(F)(F)F)cc1)N1CCN(C2(C)CCN(C(=O)c3c(C)ncnc3C)CC2)C[C@H]1C -7.34%, COc1cc2nc(SCC(=O)Nc3cccc(C)c3)n3nc(CCn4c(C)nc5ccccc54)nc3c2cc1OC -13%, CC(NC(=O)C1=Cc2ccccc2OC1)c1ccccc1 (centres undefined) -8.04%, CC(=O)Nc1ccc(NC(=O)Cn2c(=O)ccc3cc(S(=O)(=O)N4CCC(C)CC4)ccc32)cc1 -4.05%, CCCSc1ncc(Cl)c(C(=O)Nc2c(C(=O)c3ccc(F)cc3)oc3ccccc23)n1 -11.6%, CCOc1ccc(CNC(=O)C2CCCN(S(=O)(=O)N(CC)c3ccc(OCC)cc3)C2)cc1 (centres undefined) -12.5%, COc1ccc(-n2ncc(C(=O)Nc3ccc4c(c3)OCCO4)c2C2CCN(C(=O)OC(C)(C)C)CC2)cc1 -32.2%, Cc1ccc(Nc2sc(C(=O)c3ccccc3)c(N)c2S(=O)(=O)c2ccccc2)c(C)c1 -6.81%, COc1ccc(CCNC(=O)c2c(C)nn(-c3ccc(F)cc3)c2-n2cccc2)c(OC)c1OC -33.5%, COc1ccccc1N1CCN(C(=O)Cn2c(=O)n3nc(-c4cccc(C)c4)nc3c3ccccc32)CC1 -11.3%, CC(C)CSc1ccccc1NC(=O)c1sc2nc(-c3ccncc3)ccc2c1N -1.56%, O=C(Cn1cc(S(=O)(=O)Cc2ccccc2F)c2ccccc21)NCc1ccccc1Cl -8.6%, Cc1cc(C)cc(NC(=O)CN2C(=O)CCc3cc(S(=O)(=O)N4CCCCC4)ccc32)c1 6.8%, Cc1nn2c(=O)cc(COC(=O)c3ccc(NC(=O)c4cccs4)cc3)nc2s1 -18.5%
